# From PubChem BioAssay AID1671188 (National Center for Advancing Translational Sciences (NCATS), 2021)
# About 250 (0.25%) of roughly 100,000 compounds were called active. The shares of active, inactive and inconclusive entries below differ from those in the screen. The call rests on the fitted dose curve; in most records, active means well fitted inhibition curve with a large enough effect; inconclusive means small, poorly fitted or top-dose-only effect; inactive means flat fitted curve, though single readings scatter. No potency is given beside an inconclusive call; the fits are too rough.
# Target: Alanine aminotransferase 2 (Homo sapiens) (UniProt Q8TD30)
# UniProt Q8TD30, sequence (Q8TD30 whole entry, looked up): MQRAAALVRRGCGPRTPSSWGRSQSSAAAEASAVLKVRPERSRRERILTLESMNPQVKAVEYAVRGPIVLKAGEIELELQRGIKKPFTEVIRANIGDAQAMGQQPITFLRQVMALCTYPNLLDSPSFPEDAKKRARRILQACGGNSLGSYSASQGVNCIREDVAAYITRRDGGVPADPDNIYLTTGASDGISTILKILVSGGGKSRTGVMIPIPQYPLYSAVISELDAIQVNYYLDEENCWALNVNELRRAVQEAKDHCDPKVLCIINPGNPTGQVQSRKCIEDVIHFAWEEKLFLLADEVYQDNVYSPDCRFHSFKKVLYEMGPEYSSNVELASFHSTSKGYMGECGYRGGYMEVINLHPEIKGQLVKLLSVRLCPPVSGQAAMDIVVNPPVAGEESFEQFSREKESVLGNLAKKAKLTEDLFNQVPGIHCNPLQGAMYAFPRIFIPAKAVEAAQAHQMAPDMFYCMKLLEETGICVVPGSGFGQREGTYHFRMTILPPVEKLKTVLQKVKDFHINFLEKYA
# Experiment: Primary qHTS assay for inhibitors of Glutamate pyruvate transaminase 2 (GPT2); further: nearly all actives have a fitted effect of over 60% in size
# Conditions: Recombinant GPT2, coupled pyruvate oxidase/HRP Amplex Red fluorescence; series mostly up to 57.7 µM
# Method in brief: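 Fluorescence read-out: pyruvate from GPT2 turnover coupled to pyruvate oxidase, HRP and Amplex Red (0.2mM ThPP, 0.2U/mL PO and HRP, 50uM Amplex final). Substrates 250uM a-KG, 2mM L-alanine; enzyme 10ng/uL; 30 min RT.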
# Potency means the concentration at half of the fitted maximal effect; tags describe the fitted curve by direction and shape.
row,Structure (SMILES),Potency
1,O=C(OCc1ccccc1)N1CCn2cc(C(=O)N3CCOCC3)nc2C1,"inconclusive [inhibitor, single point]"
2,O=C(Cn1ccn2nc(-c3ccccc3)c(CO)c2c1=O)NC1CCCC1,"inconclusive [inhibitor, partial curve, poor fit]"
3,O=C1CC(c2ccccc2)N(Cc2ccncc2)CCCN(C(=O)c2ccsc2)CCN1 (configuration not stated),inactive
4,O=C(c1n[nH]c2c1CCCC2)N1CCC2(CC1)NC(=O)N(c1ccccc1)N2,"inconclusive [inhibitor, single point]"
5,CCCCCC(=O)Nc1nc2c(s1)C[C@@H]1[C@](C)(CO)[C@H](O)CC[C@@]1(C)[C@@H]2CC(=O)O,"inconclusive [inhibitor, full curve, poor fit]"
6,COc1ccc(C2Cn3nnc(C(=O)N4CCN(C(=O)Cc5ccccc5C)CC4)c3CO2)cc1 (configuration not stated),inactive
7,CNC(=O)CN(CCN(CCN(CC(=O)[O-])CC(=O)NC)CC(=O)[O-])CC(=O)[O-].O.[Gd+3],"inconclusive [inhibitor, single point]"
8,c1ccc(COc2ccc(CN3CCN(C4CCNC4)CC3)cc2)cc1 (configuration not stated),"inconclusive [inhibitor, single point]"
9,C[S+](=O)([O-])Nc1cccc(-c2cc3c(ccn3Cc3ccncc3)c(N3CCOCC3)n2)c1,"inconclusive [inhibitor, single point]"
10,CC(C)c1ccc(-n2cc(CN3CCN(C(=O)N(C)C)CC3)cn2)cc1,inactive
11,CCCc1[nH]nc2c1C(c1cc(Cl)cc(Cl)c1O)C(C#N)=C(N)O2 (configuration not stated),"inconclusive [inhibitor, single point]"
12,O=C(/C=C/c1ccc(O)c(O)c1)O[C@@H]1C[C@@](OC(=O)/C=C/c2ccc(O)c(O)c2)(C(=O)O)C[C@@H](O)[C@@H]1O,"inconclusive [inhibitor, single point]"
13,O=C(O)CCn1ncc2cc(OCc3ccc(-c4cncnc4)cc3)ccc21,"inconclusive [inhibitor, single point]"
14,COc1ccccc1CCN1CCCC(CN(C)C(=O)Nc2ccccc2)C1 (configuration not stated),"inconclusive [inhibitor, single point]"
15,CN1CCC(Nc2nccc(C3(c4ccccc4Cl)CCNCC3)n2)CC1,"inconclusive [inhibitor, partial curve, poor fit]"
16,COCc1noc([C@@H]2CN(C(=O)CC3CCCC3)C[C@H]2CO)n1,inactive
17,N#C/C(=C1\Nc2ccccc2S1)c1ccnc(NCCc2cccnc2)n1,"inconclusive [inhibitor, partial curve, poor fit]"
